# This is one part of the list.
# B1: Threefoil (Haloarcula marismortui) (protein)
# chain: GSSHHHHHHHHHHSSGLVPRGSHMGDGYYKLVARHSGKALDVENASTSDGANVIQYSYSGGDNQQWRLVDLGDGYYKLVARHSGKALDVENASTSDGANVIQYSYSGGDNQQWRLVDLGDGYYKLVARHSGKALDVENASTSDGANVIQYSYSGGDNQQWRLVDL
# Tests used:
# Test in all cases: glycan array binding signal (z-score within array); higher = stronger binding
# Settings in all cases: glycan notation: IUPAC condensed, linker removed
# [1] = target: Neu5Ac(a2-3)Gal(b1-4)Glc
# Summary of the method: (§1)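 Glycan array data were curated from 3228 arrays in the Consortium for Functional Glycomics database and kept only where the protein sequence was available. Glycan names were converted to IUPAC-condensed notation, and columns mapping to the same glycan were averaged. The binding signal is a within-array Z-score, averaged across arrays of the same protein sequence at different concentrations or buffers and across linkers. Negative Z-scores can be read as non-binding.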
# [2] = target: Neu5Ac(a2-3)Gal(b1-4)GlcNAc
# Summary of the method: as §1
# [3] = target: Neu5Ac(a2-3)Gal(b1-4)GlcNAc(b1-2)Man
# Summary of the method: as §1
# [4] = target: Neu5Ac(a2-3)Gal(b1-4)GlcNAc(b1-2)Man(a1-3)[GlcNAc(b1-4)][Neu5Ac(a2-3)Gal(b1-4)GlcNAc(b1-2)Man(a1-6)]Man(b1-4)GlcNAc(b1-4)GlcNAc
# Summary of the method: as §1
# [5] = target: Neu5Ac(a2-3)Gal(b1-4)GlcNAc(b1-2)Man(a1-3)[Neu5Ac(a2-3)Gal(b1-4)GlcNAc(b1-2)Man(a1-6)]Man(b1-4)GlcNAc(b1-4)GlcNAc
# Summary of the method: as §1
# [6] = target: Neu5Ac(a2-3)Gal(b1-4)GlcNAc(b1-2)Man(a1-3)[Neu5Ac(a2-3)Gal(b1-4)GlcNAc(b1-2)Man(a1-6)]Man(b1-4)GlcNAc(b1-4)[Fuc(a1-6)]GlcNAc
# Summary of the method: as §1
# [7] = target: Neu5Ac(a2-3)Gal(b1-4)GlcNAc(b1-2)Man(a1-3)[Neu5Ac(a2-6)Gal(b1-4)GlcNAc(b1-2)Man(a1-6)]Man(b1-4)GlcNAc(b1-4)GlcNAc
# Summary of the method: as §1
# [8] = target: Neu5Ac(a2-3)Gal(b1-4)GlcNAc(b1-2)[Neu5Ac(a2-3)Gal(b1-4)GlcNAc(b1-2)]Man(a1-6)[Neu5Ac(a2-3)Gal(b1-4)GlcNAc(b1-2)Man(a1-3)][GlcNAc(b1-4)]Man(b1-4)GlcNAc(b1-4)GlcNAc
# Summary of the method: as §1
# [9] = target: Neu5Ac(a2-3)Gal(b1-4)GlcNAc(b1-2)[Neu5Ac(a2-3)Gal(b1-4)GlcNAc(b1-4)]Man(a1-3)[GlcNAc(b1-4)][Neu5Ac(a2-3)Gal(b1-4)GlcNAc(b1-2)[Neu5Ac(a2-3)Gal(b1-4)GlcNAc(b1-6)]Man(a1-6)]Man(b1-4)GlcNAc(b1-4)GlcNAc
# Summary of the method: as §1
# [10] = target: Neu5Ac(a2-3)Gal(b1-4)GlcNAc(b1-2)[Neu5Ac(a2-3)Gal(b1-4)GlcNAc(b1-4)]Man(a1-3)[GlcNAc(b1-4)][Neu5Ac(a2-3)Gal(b1-4)GlcNAc(b1-4)Man(a1-6)]Man(b1-4)GlcNAc(b1-4)GlcNAc
# Summary of the method: as §1
# [11] = target: Neu5Ac(a2-3)Gal(b1-4)GlcNAc(b1-2)[Neu5Ac(a2-3)Gal(b1-4)GlcNAc(b1-6)]Man(a1-6)[Neu5Ac(a2-3)Gal(b1-4)GlcNAc(b1-2)Man(a1-3)]Man(b1-4)GlcNAc(b1-4)GlcNAc
# Summary of the method: as §1
# [12] = target: Neu5Ac(a2-3)Gal(b1-4)GlcNAc(b1-2)[Neu5Ac(a2-3)Gal(b1-4)GlcNAc(b1-6)]Man(a1-6)[Neu5Ac(a2-3)Gal(b1-4)GlcNAc(b1-2)Man(a1-3)][GlcNAc(b1-4)]Man(b1-4)GlcNAc(b1-4)GlcNAc
# Summary of the method: as §1
# [13] = target: Neu5Ac(a2-3)Gal(b1-4)GlcNAc(b1-3)Gal
# Summary of the method: as §1
# [14] = target: Neu5Ac(a2-3)Gal(b1-4)GlcNAc(b1-3)Gal(b1-3)GlcNAc
# Summary of the method: as §1
# [15] = target: Neu5Ac(a2-3)Gal(b1-4)GlcNAc(b1-3)Gal(b1-4)GlcNAc
# Summary of the method: as §1
# [16] = target: Neu5Ac(a2-3)Gal(b1-4)GlcNAc(b1-3)Gal(b1-4)GlcNAc(b1-2)Man(a1-3)[Neu5Ac(a2-3)Gal(b1-4)GlcNAc(b1-3)Gal(b1-4)GlcNAc(b1-2)Man(a1-6)]Man(b1-4)GlcNAc(b1-4)GlcNAc
# Summary of the method: as §1
# [17] = target: Neu5Ac(a2-3)Gal(b1-4)GlcNAc(b1-3)Gal(b1-4)GlcNAc(b1-3)Gal(b1-4)GlcNAc
# Summary of the method: as §1
# [18] = target: Neu5Ac(a2-3)Gal(b1-4)GlcNAc(b1-3)Gal(b1-4)GlcNAc(b1-3)Gal(b1-4)GlcNAc(b1-2)Man(a1-3)[Neu5Ac(a2-3)Gal(b1-4)GlcNAc(b1-3)Gal(b1-4)GlcNAc(b1-3)Gal(b1-4)GlcNAc(b1-2)Man(a1-6)]GalNAc
# Summary of the method: as §1
# [19] = target: Neu5Ac(a2-3)Gal(b1-4)GlcNAc(b1-3)Gal(b1-4)GlcNAc(b1-3)GalNAc
# Summary of the method: as §1
# [20] = target: Neu5Ac(a2-3)Gal(b1-4)GlcNAc(b1-3)Gal(b1-4)GlcNAc(b1-3)[Neu5Ac(a2-3)Gal(b1-4)GlcNAc(b1-3)Gal(b1-4)GlcNAc(b1-6)]GalNAc
# Summary of the method: as §1
# [21] = target: Neu5Ac(a2-3)Gal(b1-4)GlcNAc(b1-3)Gal(b1-4)GlcNAc(b1-6)[Gal(b1-3)]GalNAc
# Summary of the method: as §1
# [22] = target: Neu5Ac(a2-3)Gal(b1-4)GlcNAc(b1-3)Gal(b1-4)[Fuc(a1-3)]GlcNAc
# Summary of the method: as §1
# [23] = target: Neu5Ac(a2-3)Gal(b1-4)GlcNAc(b1-3)GalNAc
# Summary of the method: as §1
# [24] = target: Neu5Ac(a2-3)Gal(b1-4)GlcNAc(b1-3)[Neu5Ac(a2-3)Gal(b1-4)GlcNAc(b1-6)]GalNAc
# Summary of the method: as §1
# [25] = target: Neu5Ac(a2-3)Gal(b1-4)GlcNAc(b1-6)GalNAc
# Summary of the method: as §1
# [26] = target: Neu5Ac(a2-3)Gal(b1-4)GlcNAc(b1-6)[Gal(b1-3)]GalNAc
# Summary of the method: as §1
# [27] = target: Neu5Ac(a2-3)Gal(b1-4)GlcNAc(b1-6)[Neu5Ac(a2-3)Gal(b1-3)]GalNAc
# Summary of the method: as §1
# [28] = target: Neu5Ac(a2-3)Gal(b1-4)GlcNAc6S
# Summary of the method: as §1
# [29] = target: Neu5Ac(a2-3)Gal(b1-4)[Fuc(a1-3)]GlcNAc
# Summary of the method: as §1
# [30] = target: Neu5Ac(a2-3)Gal(b1-4)[Fuc(a1-3)]GlcNAc(b1-2)Man
# Summary of the method: as §1
# [31] = target: Neu5Ac(a2-3)Gal(b1-4)[Fuc(a1-3)]GlcNAc(b1-3)Gal
# Summary of the method: as §1
# [32] = target: Neu5Ac(a2-3)Gal(b1-4)[Fuc(a1-3)]GlcNAc(b1-3)Gal(b1-4)GlcNAc
# Summary of the method: as §1
# [33] = target: Neu5Ac(a2-3)Gal(b1-4)[Fuc(a1-3)]GlcNAc(b1-3)Gal(b1-4)[Fuc(a1-3)]GlcNAc(b1-3)Gal(b1-4)[Fuc(a1-3)]GlcNAc
# Summary of the method: as §1
# [34] = target: Neu5Ac(a2-3)Gal(b1-4)[Fuc(a1-3)]GlcNAc(b1-3)GalNAc
# Summary of the method: as §1
# [35] = target: Neu5Ac(a2-3)Gal(b1-4)[Fuc(a1-3)]GlcNAc(b1-6)[Gal(b1-3)]GalNAc
# Summary of the method: as §1
# [36] = target: Neu5Ac(a2-3)Gal(b1-4)[Fuc(a1-3)]GlcNAc(b1-6)[Neu5Ac(a2-3)Gal(b1-3)]GalNAc
# Summary of the method: as §1
# [37] = target: Neu5Ac(a2-3)Gal(b1-4)[Fuc(a1-3)]GlcNAc6S
# Summary of the method: as §1
# [38] = target: Neu5Ac(a2-3)Gal6S(b1-4)GlcNAc
# Summary of the method: as §1
binder,measurement,setting,value
B1,glycan array binding signal (z-score),[1],-0.26
same,glycan array binding signal (z-score),[2],-0.15
same,glycan array binding signal (z-score),[3],-0.022
same,glycan array binding signal (z-score),[4],-0.269
same,glycan array binding signal (z-score),[5],-0.211
same,glycan array binding signal (z-score),[6],-0.134
same,glycan array binding signal (z-score),[7],-0.287
same,glycan array binding signal (z-score),[8],-0.231
same,glycan array binding signal (z-score),[9],-0.221
same,glycan array binding signal (z-score),[10],-0.211
same,glycan array binding signal (z-score),[11],-0.269
same,glycan array binding signal (z-score),[12],-0.226
same,glycan array binding signal (z-score),[13],-0.299
same,glycan array binding signal (z-score),[14],-0.288
same,glycan array binding signal (z-score),[15],-0.186
same,glycan array binding signal (z-score),[16],-0.284
same,glycan array binding signal (z-score),[17],-0.127
same,glycan array binding signal (z-score),[18],0.147
same,glycan array binding signal (z-score),[19],-0.288
same,glycan array binding signal (z-score),[20],-0.102
same,glycan array binding signal (z-score),[21],-0.284
same,glycan array binding signal (z-score),[22],-0.26
same,glycan array binding signal (z-score),[23],-0.109
same,glycan array binding signal (z-score),[24],-0.133
same,glycan array binding signal (z-score),[25],-0.112
same,glycan array binding signal (z-score),[26],-0.213
same,glycan array binding signal (z-score),[27],-0.238
same,glycan array binding signal (z-score),[28],-0.364
same,glycan array binding signal (z-score),[29],-0.227
same,glycan array binding signal (z-score),[30],-0.122
same,glycan array binding signal (z-score),[31],-0.238
same,glycan array binding signal (z-score),[32],-0.117
same,glycan array binding signal (z-score),[33],-0.238
same,glycan array binding signal (z-score),[34],-0.152
same,glycan array binding signal (z-score),[35],-0.28
same,glycan array binding signal (z-score),[36],0.108
same,glycan array binding signal (z-score),[37],-0.366
same,glycan array binding signal (z-score),[38],-0.239
